Consider one protein from publication PMC9675814, “DNA mechanical flexibility controls DNA potential to activate cGAS-mediated immune surveillance” (Nature Communications, 2022).

This data set concerns the molecule itself. Nature of the data set: native gel or EMSA; Native PAGE of full-length WT and R222A mcGAS in loading buffer without β-mercaptoethanol; Coomassie blue staining (SDS PAGE with or without β-mercaptoethanol alongside). (In general: In EMSA bound probe runs differently from free probe, usually more slowly.)

B1: Full length mouse cGAS R222A (enzyme)
chain: not shown
notes: mouse cyclic GMP-AMP synthase (cGAS), full length (NM_173386.5), residue substitution made by site mutation of pET-28a-mcGAS; also called R222A mcGAS; source: E. coli BL21 (DE3), purified (Ni Sepharose 6 Fast Flow)
As to B1, the binding result was “binds”.
